Measured values as given in the supplement of paper PMC8728848.
Some of the results follow.

Legend:
Experiment in all cases: glycan array binding signal (z-score within array); higher = stronger binding
Details in all cases: glycan notation: IUPAC condensed, linker removed
[1] = biological target: Neu5Ac(a2-3)GalNAc(b1-4)GlcNAc
Procedure, shortened: (§1)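 Columns mapping to the same glycan were averaged after glycan names were converted to IUPAC-condensed notation. The data come from 3228 arrays in the Consortium for Functional Glycomics database, limited to those with an available protein sequence. Binding is reported as a within-array Z-score averaged across arrays of one protein sequence and across linkers.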

[2] = biological target: Neu5Ac(a2-3)[GalNAc(b1-4)]Gal(b1-4)Glc
Procedure, shortened: as §1

[3] = biological target: Neu5Ac(a2-3)[GalNAc(b1-4)]Gal(b1-4)GlcNAc
Procedure, shortened: as §1

[4] = biological target: Neu5Ac(a2-3)[Neu5Ac(a2-6)]GalNAc
Procedure, shortened: as §1

[5] = biological target: Neu5Ac(a2-6)Gal(b1-4)GlcNAc
Procedure, shortened: as §1

[6] = biological target: Neu5Ac(a2-6)Gal(b1-4)GlcNAc(b1-2)Man(a1-3)[Neu5Ac(a2-6)Gal(b1-4)GlcNAc(b1-2)Man(a1-6)]Man(b1-4)GlcNAc(b1-4)GlcNAc
Procedure, shortened: as §1

[7] = biological target: Neu5Ac(a2-6)Gal(b1-4)GlcNAc(b1-3)Gal(b1-4)GlcNAc
Procedure, shortened: as §1

[8] = biological target: Neu5Ac(a2-6)Gal(b1-4)GlcNAc(b1-3)Gal(b1-4)[Fuc(a1-3)]GlcNAc(b1-3)Gal(b1-4)[Fuc(a1-3)]GlcNAc
Procedure, shortened: as §1

[9] = biological target: Neu5Ac(a2-6)Gal(b1-4)GlcNAc6S
Procedure, shortened: as §1

[10] = biological target: Neu5Ac(a2-6)GalNAc
Procedure, shortened: as §1

[11] = biological target: Neu5Ac(a2-6)GalNAc(b1-4)GlcNAc
Procedure, shortened: as §1

[12] = biological target: Neu5Ac(a2-8)Neu5Ac
Procedure, shortened: as §1

[13] = biological target: Neu5Ac(a2-8)Neu5Ac(a2-3)Gal(b1-4)Glc
Procedure, shortened: as §1

[14] = biological target: Neu5Ac(a2-8)Neu5Ac(a2-3)[GalNAc(b1-4)]Gal(b1-4)Glc
Procedure, shortened: as §1

[15] = biological target: Neu5Ac(a2-8)Neu5Ac(a2-8)Neu5Ac
Procedure, shortened: as §1

[16] = biological target: Neu5Ac(a2-8)Neu5Ac(a2-8)Neu5Ac(a2-3)Gal(b1-4)Glc
Procedure, shortened: as §1

[17] = biological target: Neu5Ac(a2-8)Neu5Ac(a2-8)Neu5Ac(a2-3)[GalNAc(b1-4)]Gal(b1-4)Glc
Procedure, shortened: as §1

[18] = biological target: Neu5Ac(a2-8)Neu5Ac(a2-8)Neu5Ac(a2-8)Neu5Ac(a2-3)[GalNAc(b1-4)]Gal(b1-4)Glc
Procedure, shortened: as §1

[19] = biological target: Neu5Ac9Ac(a2-6)Gal(b1-4)GlcNAc
Procedure, shortened: as §1

[20] = biological target: Neu5Gc(a2-3)Gal(b1-3)GlcNAc
Procedure, shortened: as §1

[21] = biological target: Neu5Gc(a2-3)Gal(b1-3)[Fuc(a1-4)]GlcNAc
Procedure, shortened: as §1

[22] = biological target: Neu5Gc(a2-3)Gal(b1-4)Glc
Procedure, shortened: as §1

[23] = biological target: Neu5Gc(a2-3)Gal(b1-4)GlcNAc
Procedure, shortened: as §1

[24] = biological target: Neu5Gc(a2-3)Gal(b1-4)[Fuc(a1-4)]GlcNAc
Procedure, shortened: as §1

[25] = biological target: Neu5Gc(a2-6)Gal(b1-4)GlcNAc
Procedure, shortened: as §1

[26] = biological target: Neu5Gc(a2-6)GalNAc
Procedure, shortened: as §1

B1: IDGF2 (Drosophila melanogaster), Q9V3D4 (protein)
chain: MKAWIWFTFVACLFAASTEAASNLVCYYDSSSYTREGLGKLLNPDLEIALQFCSHLVYGYAGLRGENLQAYSMNENLDIYKHQFSEVTSLKRKYPHLKVLLSVGGDHDIDPDHPNKYIDLLEGEKVRQIGFIRSAYDLVKTYGFDGLDLAYQFPKNKPRKVHGDLGLAWKSIKKLFTGDFIVDPHAALHKEQFTALVRDVKDSLRADGFLLSLTVLPNVNSTWYFDIPALNGLVDFVNLATFDFLTPARNPEEADYSAPIYHPDGSKDRLAHLNADFQVEYWLSQGFPSNKINLGVATYGNAWKLTKDSGLEGVPVVPETSGPAPEGFQSQKPGLLSYAEICGKLSNPQNQFLKGNESPLRRVSDPTKRFGGIAYRPVDGQITEGIWVSYDDPDSASNKAAYARVKNLGGVALFDLSYDDFRGQCSGDKYPILRAIKYRLHHHHHH
glycan array binding signal (z-score) [1]: -0.449 | glycan array binding signal (z-score) [2]: -0.132 | glycan array binding signal (z-score) [3]: -0.224 | glycan array binding signal (z-score) [4]: -0.306 | glycan array binding signal (z-score) [5]: 0.122 | glycan array binding signal (z-score) [6]: -0.267 | glycan array binding signal (z-score) [7]: 0.193 | glycan array binding signal (z-score) [8]: -0.128 | glycan array binding signal (z-score) [9]: -0.019 | glycan array binding signal (z-score) [10]: 0.389 | glycan array binding signal (z-score) [11]: -0.142 | glycan array binding signal (z-score) [12]: -0.092 | glycan array binding signal (z-score) [13]: -0.245 | glycan array binding signal (z-score) [14]: -0.271 | glycan array binding signal (z-score) [15]: -0.044 | glycan array binding signal (z-score) [16]: -0.12 | glycan array binding signal (z-score) [17]: -0.276 | glycan array binding signal (z-score) [18]: 0.251 | glycan array binding signal (z-score) [19]: -0.132 | glycan array binding signal (z-score) [20]: -0.378 | glycan array binding signal (z-score) [21]: 0.295 | glycan array binding signal (z-score) [22]: 0.215 | glycan array binding signal (z-score) [23]: 0.16 | glycan array binding signal (z-score) [24]: -0.122 | glycan array binding signal (z-score) [25]: 0.622 | glycan array binding signal (z-score) [26]: 0.345
